B1: GST-105WASP: fusion protein with WASP deletion mutant domain (SEQ ID NO:18) (protein)
chain: [letters of about 200 residues left out]SDLVPRPWSNQTSLYKKAGSAAAPFTENLYFQGLVYSTPTPFFHTFAGDDCQAGLNFADEDEAQAFRALVQEKIQKRNQRQSGDRRQLPPPPTPANEERRGGLPPLPLHPGGDQGGPPVGPLSLGLATVDIQNPDITSSRYRGLPAPGPSPADKKRSGKKKISKADIGAPSGFKHVSHVGWDPQNGFDVNNLDPDLRSLFSRAGISEAQLTDAETSKLIYDFIEDQGGLEAVRQEMRRQEPLPPPPPPSRGGNQLPRPPIVGGNKGRSGPLPPVPLGIAPPPPTPRGPPPPGRGGPPPPPPPATGRSGPLPPPPPGAGGPPMPPPPPPPPPPPSSGNGPAPPPLPPALVPAGGLAPGGGRGALLDQIRQGIQLNKTPGAPESSALQPPPQSSEGLVGALMHVMQKRSRAIHSSDEGEDQAGDEDEDDEWDD
modifications: GST-105WASP fusion protein
B2: GST-tev-98N-WASP: fusion protein with N-WASP deletion mutant domain (SEQ ID NO:22) (protein)
chain: [letters of about 200 residues left out]SDLVPRPWSNQTSLYKKAGSAAAPFTENLYFQGLVYSTPTPFFHTFAGDDCQAGLNFADEDEAQAFRALVQEKIQKRNQRQSGDRRQLPPPPTPANEERRGGLPPLPLHPGGDQGGPPVGPLSLGLATVDIQNPDITSSRYRGLPAPGPSPADKKRSGKKKISKADIGAPSGFKHVSHVGWDPQNGFDVNNLDPDLRSLFSRAGISEAQLTDAETSKLIYDFIEDQGGLEAVRQEMRRQEPLPPPPPPSRGGNQLPRPPIVGGNKGRSGPLPPVPLGIAPPPPTPRGPPPPGRGGPPPPPPPATGRSGPLPPPPPGAGGPPMPPPPPPPPPPPSSGNGPAPPPLPPALVPAGGLAPGGGRGALLDQIRQGIQLNKTPGAPESSALQPPPQSSEGLVGALMHVMQKRSRAIHSSDEGEDQAGDEDEDDEWDD
modifications: GST-tev-98N-WASP fusion protein

Target: Arp2/3
Assay: Activities of WASP/N-WASP proteins (Table 4)
Type: biochemical
Text: The term “variant” or “analogue” generally refers to proteins that are functional equivalents to a native sequence that have similar amino acid sequences and retain, to some extent, one of the activities of the corresponding native protein. Variants/analogues include fragments that retain one or more activities of the corresponding native protein. Examples of WASP and N-WASP activity include, but are not limited to, capacity to: 1) bind Arp2/3 and actin; 2) activate the actin nucleation activity of Arp2/3 (descriptions of assays to detect nucleation activity are provided below); 3) bind an upstream regulator; 4) be regulated by one or more upstream regulators, thereby rendering the WASP or N-WASP protein able to activate the nucleation activity of Arp2/3; and 5) bind downstream regulators initiating signal transduction cascades. Some of the WASP and N-WASP proteins that are provided are able to recapitulate the full activity of WASP or N-WASP, which means that these proteins have all five of the activities just listed. […]
A third class of NPF proteins that can be utilized in some assays include WASP, N-WASP and SCAR proteins that include the WH1 domain but in which the PolyPro region is (e.g., deleted). A fourth class of NPF proteins that can be utilized in some assays are WASP, N-WASP and SCAR deletion mutants in which the PolyPro region is maintained but an N-terminal region (e.g., WH1 domain) is at least partially removed. Some proteins in this class are ones that include the B, CRIB/GBD (WASP and N-WASP), PolyPro and VCA domains, but in which some or all of the WH1 has been removed. One specific example is 98N-WASP, which includes amino acids 98-501 of SEQ ID NO:4. Another specific example is the 105WASP protein, which includes amino acids 105-501 of SEQ ID NO:2 (see FIG. 4B).
As indicated in this table, specific examples of fusion proteins that can be utilized include those that include a segment that encodes full-length WASP or N-WASP, including: Myc-WASP-TAP (SEQ ID NO:14); and Myc-N-WASP-TAP (SEQ ID NO: 16). Examples of fusion proteins that include a WASP or N-WASP deletion mutant domain include: GST-105WASP (SEQ ID NO:18); Myc-105WASP-TAP (SEQ ID NO:20); GST-tev-98N-WASP (SEQ ID NO:22); and Myc-98N-WASP-TAP (SEQ ID NO:24). The TAP tag in these particular fusion proteins has the general structure CBP-tev-ProtA (SEQ ID NO:36). Fusion proteins such as those listed in Table 4 can in some instances be utilized directly, or after one or both of the C- and N-terminal tags are removed. For example, the fusion proteins listed in Table 4 as having a TAP tag can be used once the TAP tag has been cleaved off and/or after the C-terminal tag has been removed.

Row | Molecule | Activate Arp2/3? | Regulated By Which Upstream Regulators?
1 | B1 | Yes | Cdc42, PIP2, Nck and Rac1
2 | B2 | Yes | Cdc42, PIP2, Nck and Rac1
